Results as given in article PMC7803540.
These are yes or no findings as the source states them, for the method shown. Binding seen in cells or lysates may run through a third protein. Some binding calls cover weakened binding; strength is not graded here.

Chains of the proteins cited; added tags and fusions are not shown.
UniProt Q00987: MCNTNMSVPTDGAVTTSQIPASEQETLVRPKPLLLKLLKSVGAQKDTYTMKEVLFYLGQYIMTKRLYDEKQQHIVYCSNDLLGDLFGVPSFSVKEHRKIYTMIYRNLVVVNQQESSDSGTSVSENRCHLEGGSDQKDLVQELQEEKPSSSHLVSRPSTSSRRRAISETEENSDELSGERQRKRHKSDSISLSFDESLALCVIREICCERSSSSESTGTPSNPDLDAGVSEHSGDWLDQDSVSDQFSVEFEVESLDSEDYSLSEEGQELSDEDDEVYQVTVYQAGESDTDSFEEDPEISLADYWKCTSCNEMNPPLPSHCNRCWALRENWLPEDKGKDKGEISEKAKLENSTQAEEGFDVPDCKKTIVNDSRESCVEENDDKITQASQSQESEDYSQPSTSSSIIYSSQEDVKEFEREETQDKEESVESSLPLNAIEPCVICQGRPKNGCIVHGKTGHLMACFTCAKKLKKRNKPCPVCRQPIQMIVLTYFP
UniProt P46934: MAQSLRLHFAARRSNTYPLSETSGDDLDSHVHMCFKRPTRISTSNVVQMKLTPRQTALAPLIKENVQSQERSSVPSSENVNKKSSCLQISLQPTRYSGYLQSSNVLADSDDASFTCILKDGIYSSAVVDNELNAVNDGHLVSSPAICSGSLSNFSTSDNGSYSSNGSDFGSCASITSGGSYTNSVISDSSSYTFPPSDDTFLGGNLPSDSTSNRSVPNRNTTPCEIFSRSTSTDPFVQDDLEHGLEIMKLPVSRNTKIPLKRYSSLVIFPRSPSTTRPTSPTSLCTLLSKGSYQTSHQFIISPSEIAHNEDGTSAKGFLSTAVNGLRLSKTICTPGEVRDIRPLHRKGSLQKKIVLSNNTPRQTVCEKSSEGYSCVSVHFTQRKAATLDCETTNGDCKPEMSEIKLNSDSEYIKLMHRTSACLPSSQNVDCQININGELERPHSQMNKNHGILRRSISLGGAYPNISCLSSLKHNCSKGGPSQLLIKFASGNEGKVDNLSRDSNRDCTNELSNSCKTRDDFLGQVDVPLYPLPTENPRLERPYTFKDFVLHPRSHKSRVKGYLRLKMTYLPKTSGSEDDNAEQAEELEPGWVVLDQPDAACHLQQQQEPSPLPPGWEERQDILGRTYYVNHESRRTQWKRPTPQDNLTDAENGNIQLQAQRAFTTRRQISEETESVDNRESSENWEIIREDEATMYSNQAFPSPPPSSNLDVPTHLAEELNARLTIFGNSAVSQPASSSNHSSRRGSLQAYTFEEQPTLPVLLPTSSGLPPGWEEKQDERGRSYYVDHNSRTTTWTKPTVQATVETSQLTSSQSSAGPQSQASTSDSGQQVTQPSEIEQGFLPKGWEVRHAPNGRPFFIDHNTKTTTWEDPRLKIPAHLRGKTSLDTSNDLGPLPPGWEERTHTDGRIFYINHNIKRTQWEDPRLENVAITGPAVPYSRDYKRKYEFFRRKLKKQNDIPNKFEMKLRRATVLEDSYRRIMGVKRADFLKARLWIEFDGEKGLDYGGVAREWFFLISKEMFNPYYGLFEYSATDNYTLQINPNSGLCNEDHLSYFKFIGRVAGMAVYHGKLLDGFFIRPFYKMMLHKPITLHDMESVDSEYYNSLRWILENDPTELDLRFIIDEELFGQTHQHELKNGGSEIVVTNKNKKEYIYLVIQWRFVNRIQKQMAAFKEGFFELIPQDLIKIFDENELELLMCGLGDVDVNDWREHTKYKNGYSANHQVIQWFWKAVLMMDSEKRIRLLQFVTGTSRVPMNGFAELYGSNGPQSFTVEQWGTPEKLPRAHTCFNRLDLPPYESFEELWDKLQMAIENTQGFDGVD
UniProt Q9HAU4: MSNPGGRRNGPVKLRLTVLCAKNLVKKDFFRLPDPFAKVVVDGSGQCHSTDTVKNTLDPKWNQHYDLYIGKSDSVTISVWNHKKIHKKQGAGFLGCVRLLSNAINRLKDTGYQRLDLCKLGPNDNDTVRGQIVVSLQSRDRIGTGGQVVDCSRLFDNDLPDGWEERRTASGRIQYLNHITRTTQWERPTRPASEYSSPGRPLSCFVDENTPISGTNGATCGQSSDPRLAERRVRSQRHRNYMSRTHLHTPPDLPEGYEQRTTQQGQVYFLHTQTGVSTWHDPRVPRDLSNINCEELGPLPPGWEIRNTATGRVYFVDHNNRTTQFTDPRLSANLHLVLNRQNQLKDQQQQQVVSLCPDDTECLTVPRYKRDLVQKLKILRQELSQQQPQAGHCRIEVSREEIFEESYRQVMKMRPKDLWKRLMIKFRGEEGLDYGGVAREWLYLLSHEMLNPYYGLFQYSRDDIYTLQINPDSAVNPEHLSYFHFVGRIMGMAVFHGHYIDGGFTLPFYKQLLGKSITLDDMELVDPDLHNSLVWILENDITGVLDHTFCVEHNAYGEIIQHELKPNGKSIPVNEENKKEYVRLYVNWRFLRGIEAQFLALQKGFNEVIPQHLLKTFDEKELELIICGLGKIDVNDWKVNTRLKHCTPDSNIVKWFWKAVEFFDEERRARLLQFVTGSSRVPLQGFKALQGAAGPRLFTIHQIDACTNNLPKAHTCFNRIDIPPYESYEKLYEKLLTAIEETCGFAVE
UniProt Q86TM6: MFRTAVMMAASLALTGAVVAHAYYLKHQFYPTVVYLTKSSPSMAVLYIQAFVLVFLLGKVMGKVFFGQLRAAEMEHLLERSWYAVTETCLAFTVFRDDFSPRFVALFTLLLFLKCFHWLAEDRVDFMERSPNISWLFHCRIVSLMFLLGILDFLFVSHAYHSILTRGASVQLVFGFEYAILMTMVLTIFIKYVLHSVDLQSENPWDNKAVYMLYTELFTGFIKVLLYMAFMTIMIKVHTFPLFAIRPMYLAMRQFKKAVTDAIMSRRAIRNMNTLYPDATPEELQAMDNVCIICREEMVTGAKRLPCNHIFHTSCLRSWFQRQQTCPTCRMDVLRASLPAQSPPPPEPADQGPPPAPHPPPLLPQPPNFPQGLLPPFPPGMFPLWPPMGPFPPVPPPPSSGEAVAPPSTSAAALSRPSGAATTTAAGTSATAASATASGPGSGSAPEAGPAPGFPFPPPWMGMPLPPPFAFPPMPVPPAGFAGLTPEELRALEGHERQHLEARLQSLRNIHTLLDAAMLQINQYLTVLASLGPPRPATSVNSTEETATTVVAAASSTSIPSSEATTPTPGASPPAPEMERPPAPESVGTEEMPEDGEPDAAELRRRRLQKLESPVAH

T1: SIX3 (human (endogenous in A549)) (UniProt O95343)
T1 sequence: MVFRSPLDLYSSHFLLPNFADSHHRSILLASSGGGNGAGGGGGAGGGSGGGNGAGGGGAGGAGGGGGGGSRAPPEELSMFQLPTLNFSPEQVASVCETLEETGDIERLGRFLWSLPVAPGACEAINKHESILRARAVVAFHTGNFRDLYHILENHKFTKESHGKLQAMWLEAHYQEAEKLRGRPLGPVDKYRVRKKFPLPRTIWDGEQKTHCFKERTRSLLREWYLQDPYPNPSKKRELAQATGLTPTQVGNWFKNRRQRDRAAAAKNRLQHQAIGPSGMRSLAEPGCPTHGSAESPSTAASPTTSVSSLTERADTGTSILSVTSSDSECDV

B1: RNF6 (enzyme, UniProt Q9Y252 1-685)
chain: MNQSRSRSDGGSEETLPQDHNHHENERRWQQERLHREEAYYQFINELNDEDYRLMRDHNLLGTPGEITSEELQQRLDGVKEQLASQPDLRDGTNYRDSEVPRESSHEDSLLEWLNTFRRTGNATRSGQNGNQTWRAVSRTNPNNGEFRFSLEIHVNHENRGFEIHGEDYTDIPLSDSNRDHTANRQQRSTSPVARRTRSQTSVNFNGSSSNIPRTRLASRGQNPAEGSFSTLGRLRNGIGGAAGIPRANASRTNFSSHTNQSGGSELRQREGQRFGAAHVWENGARSNVTVRNTNQRLEPIRLRSTSNSRSRSPIQRQSGTVYHNSQRESRPVQQTTRRSVRRRGRTRVFLEQDRERERRGTAYTPFSNSRLVSRITVEEGEESSRSSTAVRRHPTITLDLQVRRIRPGENRDRDSIANRTRSRVGLAENTVTIESNSGGFRRTISRLERSGIRTYVSTITVPLRRISENELVEPSSVALRSILRQIMTGFGELSSLMEADSESELQRNGQHLPDMHSELSNLGTDNNRSQHREGSSQDRQAQGDSTEMHGENETTQPHTRNSDSRGGRQLRNPNNLVETGTLPILRLAHFFLLNESDDDDRIRGLTKEQIDNLSTRHYEHNSIDSELGKICSVCISDYVTGNKLRQLPCMHEFHIHCIDRWLSENCTCPICRQPVLGSNIANNG

target: T1, SIX3 (human (endogenous in A549)); experiment: co-IP; A549 cell lysates, endogenous proteins; precipitated with anti-SIX3 or control IgG antibody, immunoprecipitates washed at least five times and immunoblotted with antibodies to E3 ligases

Molecule | binding
MDM2 (from UniProt Q00987 1-491) (enzyme) | no binding
NEDD4 (from UniProt P46934 1-1319) (enzyme) | no binding
SMURF2 (from UniProt Q9HAU4 1-748) (enzyme) | binds
SYVN1 (from UniProt Q86TM6 1-617) (enzyme) | no binding
B1 | no binding
